According to the supplement of paper PMC10126150:
Values marked as one replicate rest on one cluster of the flow cell; about a third of the high ones do not repeat.

Each sequence was assayed on ATP (assay: switch fluorescence ratio, 500 uM ATP over buffer (Cy3 cluster intensity, sum of 5 cycles each) (fold (ratio)); higher = stronger signal-on switching upon ATP binding; sequences stand for … in TCGTCGGCAGCGTCAGATGTGTATAAGAGACAGTTTTTTTTTTTTTTTTTTTTTTTTT…TC). Conditions: aptamer strand: ATP DNA aptamer (quencher-CACCTGGGGGAGTATTGCGGAGGAAGG + anchor), 100 nM annealed; ATP concentration: 500 uM; one replicate.
How it was run: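 Between each of five buffer/ATP cycles, the flow-cell was stripped with NaOH and re-annealed. Each cycle imaged Cy3-labelled switching-strand clusters, annealed to 100 nM quencher-labelled ATP aptamer on a modified Illumina MiSeq flow-cell, first in selection buffer and then after 15 min with 500 uM ATP at 22 °C. The fluorescence ratio is summed target-cycle over summed buffer-cycle Cy3 intensity per cluster, averaged per switch-domain sequence, with clusters outside 100-1000 RFU excluded.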
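Further: ATP exposure 15 min at 22 °C before imaging.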

Row | Sequence | switch fluorescence ratio
1 | CGTAGCTTGT | 1.13
2 | CGTAGGAAAT | 1.45
3 | CGTAGGGAAC | 1.15
4 | CGTAGGTAGC | 0.997
5 | CGTAGGTTCT | 0.966
6 | CGTAGTGTGC | 1.74
7 | CGTATAAGC | 0.987
8 | CGTATACGGG | 1.04
9 | CGTATATGAT | 1.04
10 | CGTATATTGG | 0.974
11 | CGTATCCCGA | 1.02
12 | CGTATTAATA | 1.02
13 | CGTATTCTAA | 1.01
14 | CGTATTGCCT | 0.994
15 | CGTCAAGGGT | 0.988
16 | CGTCAAGTTG | 0.987
17 | CGTCAGCGTT | 1.05
18 | CGTCATATC | 1.35
19 | CGTCATCTTT | 1.1
20 | CGTCCCCTTC | 1.07
21 | CGTCCCGTGA | 1.08
22 | CGTCCCTAAC | 2.4
23 | CGTCCGGGGG | 1.13
24 | CGTCCTAATG | 1.07
25 | CGTCCTAGCC | 1.11

Row | Sequence | switch fluorescence ratio
26 | CGTCCTGACG | 0.959
27 | CGTCGAACAG | 0.996
28 | CGTCGAATTG | 1.02
29 | CGTCGATTTT | 0.999
30 | CGTCGCACGG | 1.07
31 | CGTCGCAGCG | 1
32 | CGTCGCTGGC | 1.44
33 | CGTCGGAAGA | 1.03
34 | CGTCGTGAGT | 1.01
35 | CGTCTAGGCG | 1.01
36 | CGTCTCTCGC | 1.04
37 | CGTCTGATCC | 1.07
38 | CGTCTGGGTT | 0.997
39 | CGTCTGGTGT | 1.02
40 | CGTCTTACCT | 1.07
41 | CGTCTTGTAT | 0.978
42 | CGTGAAGGCA | 0.933
43 | CGTGAAGGTT | 0.933
44 | CGTGACGGG | 1.02
45 | CGTGAGGCTA | 0.993
46 | CGTGAGGTGC | 1.11
47 | CGTGAGTCTT | 1.01
48 | CGTGATCGA | 0.989
49 | CGTGATCGCA | 0.983
50 | CGTGATGGCA | 1.04

Row | Sequence | switch fluorescence ratio
51 | CGTGCAATCG | 1.2
52 | CGTGCCCGAT | 0.969
53 | CGTGCCGCAC | 1.34
54 | CGTGCGGAAG | 1.03
55 | CGTGCGGATA | 1.05
56 | CGTGGACCCA | 0.984
57 | CGTGGATTCA | 1.02
58 | CGTGGCGAAC | 1.06
59 | CGTGGCGCTA | 1
60 | CGTGGCGGTC | 0.913
61 | CGTGGTACCC | 1.02
62 | CGTGGTCAC | 0.978
63 | CGTGTACCGT | 0.985
64 | CGTGTCATGA | 1
65 | CGTGTGAACG | 0.922
66 | CGTGTGACGG | 1.09
67 | CGTGTGGCCT | 1.02
68 | CGTGTTCCTT | 1.01
69 | CGTGTTGCGT | 0.926
70 | CGTGTTTATT | 1.01
71 | CGTTAAACAT | 1.05
72 | CGTTAAAGCT | 1.13
73 | CGTTAAGTG | 0.977
74 | CGTTAATTCC | 1.07
75 | CGTTACCATT | 0.993

Row | Sequence | switch fluorescence ratio
76 | CGTTACCTTC | 1.29
77 | CGTTAGCGGA | 0.981
78 | CGTTATACGA | 1.07
79 | CGTTATACTC | 5.04
80 | CGTTATAGAA | 0.976
81 | CGTTATCATG | 0.974
82 | CGTTCAAACT | 1.06
83 | CGTTCACATT | 1.01
84 | CGTTCACCG | 1
85 | CGTTCACCGC | 1.18
86 | CGTTCCGCTA | 5.37
87 | CGTTCCGGAG | 2.24
88 | CGTTCCTATG | 1.09
89 | CGTTCGATTA | 0.994
90 | CGTTCGCCAT | 1.24
91 | CGTTCGGGTG | 1
92 | CGTTCGTAAA | 1.11
93 | CGTTCTCTTG | 1.01
94 | CGTTCTGGCG | 0.921
95 | CGTTGAACTC | 1.05
96 | CGTTGAAGGG | 1.03
97 | CGTTGAGACA | 1
98 | CGTTGCGGGC | 1.12
99 | CGTTGCTCGC | 1.05
100 | CGTTGGCACT | 1.03

Row | Sequence | switch fluorescence ratio
101 | CGTTGGCCTG | 1
102 | CGTTGGCGAA | 0.992
103 | CGTTGGGCGC | 0.991
104 | CGTTTAAGCT | 1.01
105 | CGTTTACCA | 1
106 | CGTTTAGACA | 1.06
107 | CGTTTAGCCA | 0.964
108 | CGTTTATTAA | 1.01
109 | CGTTTCAAAT | 1.03
110 | CGTTTCCAAC | 0.991
111 | CGTTTCCGGG | 0.991
112 | CGTTTCGAGG | 0.99
113 | CGTTTGAACC | 1.03
114 | CGTTTGCAT | 1.06
115 | CGTTTGTTAA | 1.05
116 | CTAAAAGCTT | 0.979
117 | CTAAAAGTAA | 1.03
118 | CTAAAAGTTA | 1.03
119 | CTAAATAACG | 0.975
120 | CTAAATTTTG | 1.02
121 | CTAACCCTTT | 1.03
122 | CTAACCGGCC | 2.09
123 | CTAACCTGGG | 1.08
124 | CTAACTGCGG | 0.994
125 | CTAAGCATGC | 1.19

Row | Sequence | switch fluorescence ratio
126 | CTAAGTTGTA | 1
127 | CTAATAAAAT | 1.07
128 | CTAATAGAGA | 0.962
129 | CTAATAGGTT | 1.07
130 | CTAATCAATG | 1.03
131 | CTAATCAGTG | 1.04
132 | CTAATGAACG | 1.05
133 | CTAATGATC | 1.01
134 | CTAATGGGAT | 0.97
135 | CTAATGTAAG | 1.02
136 | CTAATTAGTA | 1.05
137 | CTAATTATAC | 1.29
138 | CTACAATTCT | 1.06
139 | CTACAGGTTG | 1.12
140 | CTACATGAGA | 1.02
141 | CTACATGGGG | 1
142 | CTACATTACG | 1.54
143 | CTACATTGA | 1.03
144 | CTACCATCCA | 1.08
145 | CTACCCGCGG | 1.08
146 | CTACCGTGG | 0.99
147 | CTACGAAAAT | 1.04
148 | CTACGCGCCG | 1.11
149 | CTACGGACTA | 1.41
150 | CTACGTATGC | 1.74

Row | Sequence | switch fluorescence ratio
151 | CTACGTTACG | 1.39
152 | CTACGTTGAC | 2.19
153 | CTACTCAGCC | 1.06
154 | CTACTGGGCG | 0.993
155 | CTACTTGTT | 0.962
156 | CTAGAAACCA | 0.998
157 | CTAGACGTTG | 1.01
158 | CTAGACTATG | 0.991
159 | CTAGAGAGGG | 0.981
160 | CTAGAGGCAT | 1.02
161 | CTAGAGTGGT | 1
162 | CTAGAGTGTG | 0.976
163 | CTAGATTGGT | 0.943
164 | CTAGCAGGCA | 1.01
165 | CTAGCAGGGT | 1
166 | CTAGCATCAC | 2.41
167 | CTAGCCGGAC | 1
168 | CTAGCTCCAT | 0.993
169 | CTAGCTTGTA | 1.04
170 | CTAGGAAGAT | 0.995
171 | CTAGGGCCAG | 0.97
172 | CTAGGGCTAG | 0.989
173 | CTAGGGGCG | 1.01
174 | CTAGGTGTCC | 0.999
175 | CTAGTACTTA | 1.02

Row | Sequence | switch fluorescence ratio
176 | CTAGTAGGTG | 1.08
177 | CTAGTGGTGG | 0.979
178 | CTAGTGGTGT | 1.05
179 | CTAGTGTGAT | 0.92
180 | CTAGTTAAAT | 0.995
181 | CTAGTTACTG | 1.06
182 | CTAGTTATAT | 0.985
183 | CTAGTTCATC | 0.984
184 | CTATAACGCT | 1
185 | CTATACACAG | 1.1
186 | CTATACCTGG | 0.988
187 | CTATACGTCC | 1.05
188 | CTATAGGTTC | 1.01
189 | CTATAGTGTT | 1.03
190 | CTATATAAGC | 1.06
191 | CTATATTCTA | 0.98
192 | CTATCACGGC | 1.06
193 | CTATCATGT | 1.05
194 | CTATCATTCG | 0.963
195 | CTATCATTTT | 1.02
196 | CTATCGGGTG | 1.07
197 | CTATCGGTCC | 1.02
198 | CTATCTTAAG | 0.992
199 | CTATCTTACG | 1.11
200 | CTATGAATGT | 0.946
